Laboratory results taken from PMC12820563.
This is one part of the list. The list includes weakly bound sequences.

Target: T1, MBP-FoxP3dN (UniProt Q99JB6)
T1 sequence: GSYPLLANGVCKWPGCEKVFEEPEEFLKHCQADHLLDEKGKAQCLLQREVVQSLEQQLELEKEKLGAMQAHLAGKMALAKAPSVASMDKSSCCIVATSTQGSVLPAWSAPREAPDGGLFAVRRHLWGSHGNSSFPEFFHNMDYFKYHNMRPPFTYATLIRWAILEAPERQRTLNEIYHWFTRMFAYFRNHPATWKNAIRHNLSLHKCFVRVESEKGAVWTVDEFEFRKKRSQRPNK
Test: PD-seq (MBP pull-down with sequencing)
Settings: 20 mM Tris-HCl pH 7.5, 100 mM NaCl, 1.5 mM MgCl2, 0.4 uM protein, 0.1 uM dsDNA library, 30 min, room temperature, amylose pull-down; high values mean tight binding; double strand, one strand shown

Sequence | binding signal (RPM ratio (pull-down/input))
GATGATTGTTCTCCCAGCTGATGAATTTTCAGGTTCGAGTAAACAAATTTTCCTAATCTTTCTGTTCAAGCGCCATCTAC | 0.214
GATGATTGTTCTCCCAGCTGATGAATTAGTAATATCGAGTAAACAAATTTTCCTAATCTTTCTGTTCAAGCGCCATCTAC | 0.74
GATGATTGTTCTCCCAGCTGATGAATTGGCCTATTCGAGTAAACAAATTTTCCTAATCTTTCTGTTCAAGCGCCATCTAC | 0.481
GATGATTGTTCTCCCAGCTGATGAATTGTGATCTTCGAGTAAACAAATTTTCCTAATCTTTCTGTTCAAGCGCCATCTAC | 1.11
GATGATTGTTCTCCCAGCTGATGAATTATCCGTATCGAGTAAACAAATTTTCCTAATCTTTCTGTTCAAGCGCCATCTAC | 0.372
GATGATTGTTCTCCCAGCTGATGAATTACCAAGGTCGAGTAAACAAATTTTCCTAATCTTTCTGTTCAAGCGCCATCTAC | 0.177
GATGATTGTTCTCCCAGCTGATGAATTCACGATGTCGAGTAAACAAATTTTCCTAATCTTTCTGTTCAAGCGCCATCTAC | 0.352
GATGATTGTTCTCCCAGCTGATGAATTGGACCAATCGAGTAAACAAATTTTCCTAATCTTTCTGTTCAAGCGCCATCTAC | 0.296
GATGATTGTTCTCCCAGCTGATGAATTGGATGGATCGAGTAAACAAATTTTCCTAATCTTTCTGTTCAAGCGCCATCTAC | 0.356
GATGATTGTTCTCCCAGCTGATGAATTCAGGCAGTCGAGTAAACAAATTTTCCTAATCTTTCTGTTCAAGCGCCATCTAC | 0.389
GATGATTGTTCTCCCAGCTGATGAATTTGGAGCTTCGAGTAAACAAATTTTCCTAATCTTTCTGTTCAAGCGCCATCTAC | 0.353
GATGATTGTTCTCCCAGCTGATGAATTTGGCGTCTCGAGTAAACAAATTTTCCTAATCTTTCTGTTCAAGCGCCATCTAC | 3.82
GATGATTGTTCTCCCAGCTGATGAATTCTAAGGGTCGAGTAAACAAATTTTCCTAATCTTTCTGTTCAAGCGCCATCTAC | 0.213
GATGATTGTTCTCCCAGCTGATGAATTAACTTTATCGAGTAAACAAATTTTCCTAATCTTTCTGTTCAAGCGCCATCTAC | 0.445
GATGATTGTTCTCCCAGCTGATGAATTAAGTAAGTCGAGTAAACAAATTTTCCTAATCTTTCTGTTCAAGCGCCATCTAC | 0.454
GATGATTGTTCTCCCAGCTGATGAATTCCCCCTCTCGAGTAAACAAATTTTCCTAATCTTTCTGTTCAAGCGCCATCTAC | 0.229
GATGATTGTTCTCCCAGCTGATGAATTGCTGCCGTCGAGTAAACAAATTTTCCTAATCTTTCTGTTCAAGCGCCATCTAC | 0.73
GATGATTGTTCTCCCAGCTGATGAATTGAGGTGGTCGAGTAAACAAATTTTCCTAATCTTTCTGTTCAAGCGCCATCTAC | 0.405
GATGATTGTTCTCCCAGCTGATGAATTATGATTTTCGAGTAAACAAATTTTCCTAATCTTTCTGTTCAAGCGCCATCTAC | 1.8
GATGATTGTTCTCCCAGCTGATGAATTTTAGCATTCGAGTAAACAAATTTTCCTAATCTTTCTGTTCAAGCGCCATCTAC | 5.97
GATGATTGTTCTCCCAGCTGATGAATTCTTGCTTTCGAGTAAACAAATTTTCCTAATCTTTCTGTTCAAGCGCCATCTAC | 0.735

Sequence | binding signal (RPM ratio (pull-down/input))
GATGATTGTTCTCCCAGCTGATGAATTCCAGACGTCGAGTAAACAAATTTTCCTAATCTTTCTGTTCAAGCGCCATCTAC | 0.227
GATGATTGTTCTCCCAGCTGATGAATTCGCTGGGTCGAGTAAACAAATTTTCCTAATCTTTCTGTTCAAGCGCCATCTAC | 0.495
GATGATTGTTCTCCCAGCTGATGAATTGTCTCGATCGAGTAAACAAATTTTCCTAATCTTTCTGTTCAAGCGCCATCTAC | 0.345
GATGATTGTTCTCCCAGCTGATGAATTGGGATAATCGAGTAAACAAATTTTCCTAATCTTTCTGTTCAAGCGCCATCTAC | 0.392
GATGATTGTTCTCCCAGCTGATGAATTCGTCGGGTCGAGTAAACAAATTTTCCTAATCTTTCTGTTCAAGCGCCATCTAC | 0.574
GATGATTGTTCTCCCAGCTGATGAATTGATAGGTTCGAGTAAACAAATTTTCCTAATCTTTCTGTTCAAGCGCCATCTAC | 0.509
GATGATTGTTCTCCCAGCTGATGAATTATCAATTTCGAGTAAACAAATTTTCCTAATCTTTCTGTTCAAGCGCCATCTAC | 0.375
GATGATTGTTCTCCCAGCTGATGAATTAGACTTGTCGAGTAAACAAATTTTCCTAATCTTTCTGTTCAAGCGCCATCTAC | 0.529
GATGATTGTTCTCCCAGCTGATGAATTCGTAACGTCGAGTAAACAAATTTTCCTAATCTTTCTGTTCAAGCGCCATCTAC | 0.534
GATGATTGTTCTCCCAGCTGATGAATTCATTTCCTCGAGTAAACAAATTTTCCTAATCTTTCTGTTCAAGCGCCATCTAC | 0.768
GATGATTGTTCTCCCAGCTGATGAATTTGACATGTCGAGTAAACAAATTTTCCTAATCTTTCTGTTCAAGCGCCATCTAC | 1.81
GATGATTGTTCTCCCAGCTGATGAATTAAAATCATCGAGTAAACAAATTTTCCTAATCTTTCTGTTCAAGCGCCATCTAC | 0.424
GATGATTGTTCTCCCAGCTGATGAATTTCGACGTTCGAGTAAACAAATTTTCCTAATCTTTCTGTTCAAGCGCCATCTAC | 0.582
GATGATTGTTCTCCCAGCTGATGAATTGGTATACTCGAGTAAACAAATTTTCCTAATCTTTCTGTTCAAGCGCCATCTAC | 3.5
GATGATTGTTCTCCCAGCTGATGAATTGCGGTTATCGAGTAAACAAATTTTCCTAATCTTTCTGTTCAAGCGCCATCTAC | 1.49
GATGATTGTTCTCCCAGCTGATGAATTACATCGTTCGAGTAAACAAATTTTCCTAATCTTTCTGTTCAAGCGCCATCTAC | 0.715
GATGATTGTTCTCCCAGCTGATGAATTACAGGCATCGAGTAAACAAATTTTCCTAATCTTTCTGTTCAAGCGCCATCTAC | 0.916
GATGATTGTTCTCCCAGCTGATGAATTATCATATTCGAGTAAACAAATTTTCCTAATCTTTCTGTTCAAGCGCCATCTAC | 0.565
GATGATTGTTCTCCCAGCTGATGAATTTTAACCATCGAGTAAACAAATTTTCCTAATCTTTCTGTTCAAGCGCCATCTAC | 0.364
GATGATTGTTCTCCCAGCTGATGAATTATATCACTCGAGTAAACAAATTTTCCTAATCTTTCTGTTCAAGCGCCATCTAC | 1.05
GATGATTGTTCTCCCAGCTGATGAATTTTACTACTCGAGTAAACAAATTTTCCTAATCTTTCTGTTCAAGCGCCATCTAC | 0.31

Sequence | binding signal (RPM ratio (pull-down/input))
GATGATTGTTCTCCCAGCTGATGAATTAGTAGTTTCGAGTAAACAAATTTTCCTAATCTTTCTGTTCAAGCGCCATCTAC | 1.93
GATGATTGTTCTCCCAGCTGATGAATTCAGCGTGTCGAGTAAACAAATTTTCCTAATCTTTCTGTTCAAGCGCCATCTAC | 3.29
GATGATTGTTCTCCCAGCTGATGAATTCGCAGGATCGAGTAAACAAATTTTCCTAATCTTTCTGTTCAAGCGCCATCTAC | 0.268
GATGATTGTTCTCCCAGCTGATGAATTCTAACGTTCGAGTAAACAAATTTTCCTAATCTTTCTGTTCAAGCGCCATCTAC | 0.467
GATGATTGTTCTCCCAGCTGATGAATTCAACGTATCGAGTAAACAAATTTTCCTAATCTTTCTGTTCAAGCGCCATCTAC | 0.526
GATGATTGTTCTCCCAGCTGATGAATTACTATTCTCGAGTAAACAAATTTTCCTAATCTTTCTGTTCAAGCGCCATCTAC | 0.559
GATGATTGTTCTCCCAGCTGATGAATTTTGCAAGTCGAGTAAACAAATTTTCCTAATCTTTCTGTTCAAGCGCCATCTAC | 3.41
GATGATTGTTCTCCCAGCTGATGAATTTATGCTTTCGAGTAAACAAATTTTCCTAATCTTTCTGTTCAAGCGCCATCTAC | 1.91
GATGATTGTTCTCCCAGCTGATGAATTTCGCTCATCGAGTAAACAAATTTTCCTAATCTTTCTGTTCAAGCGCCATCTAC | 0.54
GATGATTGTTCTCCCAGCTGATGAATTTTAATTCTCGAGTAAACAAATTTTCCTAATCTTTCTGTTCAAGCGCCATCTAC | 0.593
GATGATTGTTCTCCCAGCTGATGAATTTAGTACATCGAGTAAACAAATTTTCCTAATCTTTCTGTTCAAGCGCCATCTAC | 0.776
GATGATTGTTCTCCCAGCTGATGAATTCACCGCCTCGAGTAAACAAATTTTCCTAATCTTTCTGTTCAAGCGCCATCTAC | 0.515
GATGATTGTTCTCCCAGCTGATGAATTCCTAGCTTCGAGTAAACAAATTTTCCTAATCTTTCTGTTCAAGCGCCATCTAC | 0.265
GATGATTGTTCTCCCAGCTGATGAATTAGAGTCCTCGAGTAAACAAATTTTCCTAATCTTTCTGTTCAAGCGCCATCTAC | 0.493
GATGATTGTTCTCCCAGCTGATGAATTCCGGCGCTCGAGTAAACAAATTTTCCTAATCTTTCTGTTCAAGCGCCATCTAC | 0.332
GATGATTGTTCTCCCAGCTGATGAATTCTCAAACTCGAGTAAACAAATTTTCCTAATCTTTCTGTTCAAGCGCCATCTAC | 0.238
GATGATTGTTCTCCCAGCTGATGAATTGACTCCGTCGAGTAAACAAATTTTCCTAATCTTTCTGTTCAAGCGCCATCTAC | 0.306
GATGATTGTTCTCCCAGCTGATGAATTTGTTCTCTCGAGTAAACAAATTTTCCTAATCTTTCTGTTCAAGCGCCATCTAC | 2.14
GATGATTGTTCTCCCAGCTGATGAATTAGGTCGATCGAGTAAACAAATTTTCCTAATCTTTCTGTTCAAGCGCCATCTAC | 0.303
GATGATTGTTCTCCCAGCTGATGAATTCGTGCATTCGAGTAAACAAATTTTCCTAATCTTTCTGTTCAAGCGCCATCTAC | 6.29
GATGATTGTTCTCCCAGCTGATGAATTCGTCAGATCGAGTAAACAAATTTTCCTAATCTTTCTGTTCAAGCGCCATCTAC | 0.227
